Laboratory results from PMC9792355.
Results are given in words; binding and its absence hold for the method and conditions named. In cells and extracts the contact can be indirect. Some entries that bind do so weakly or less than the wild type.

By UniProt entry, the sequences of proteins in these tests, tags left out. Residues count along the entry.
UniProt P51451: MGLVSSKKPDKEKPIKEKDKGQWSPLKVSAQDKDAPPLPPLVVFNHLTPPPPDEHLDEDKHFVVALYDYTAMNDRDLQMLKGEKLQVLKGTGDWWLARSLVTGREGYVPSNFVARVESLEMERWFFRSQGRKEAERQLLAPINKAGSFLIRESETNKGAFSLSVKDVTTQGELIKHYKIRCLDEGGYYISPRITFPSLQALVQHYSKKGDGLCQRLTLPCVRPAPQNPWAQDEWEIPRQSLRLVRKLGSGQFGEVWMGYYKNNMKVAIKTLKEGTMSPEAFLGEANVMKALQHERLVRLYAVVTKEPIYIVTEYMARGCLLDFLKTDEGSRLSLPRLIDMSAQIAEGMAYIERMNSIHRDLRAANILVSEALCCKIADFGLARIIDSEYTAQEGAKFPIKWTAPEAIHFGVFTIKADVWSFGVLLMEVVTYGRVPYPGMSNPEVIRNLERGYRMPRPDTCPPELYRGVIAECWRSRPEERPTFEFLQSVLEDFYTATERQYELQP
UniProt P06241: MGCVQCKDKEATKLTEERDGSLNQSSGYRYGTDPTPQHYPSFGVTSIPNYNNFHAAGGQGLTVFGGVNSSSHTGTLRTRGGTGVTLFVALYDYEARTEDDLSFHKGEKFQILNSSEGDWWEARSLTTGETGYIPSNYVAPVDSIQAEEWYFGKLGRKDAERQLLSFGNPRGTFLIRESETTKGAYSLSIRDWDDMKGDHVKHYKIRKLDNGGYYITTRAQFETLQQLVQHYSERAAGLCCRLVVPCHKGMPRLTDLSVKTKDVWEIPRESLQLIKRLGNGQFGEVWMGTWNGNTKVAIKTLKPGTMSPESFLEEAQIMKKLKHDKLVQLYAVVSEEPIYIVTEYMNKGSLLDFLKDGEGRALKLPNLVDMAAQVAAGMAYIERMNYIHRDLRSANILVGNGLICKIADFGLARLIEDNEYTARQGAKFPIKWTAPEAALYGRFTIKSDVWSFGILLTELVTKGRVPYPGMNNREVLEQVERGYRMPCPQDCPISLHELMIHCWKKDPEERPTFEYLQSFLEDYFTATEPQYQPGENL
UniProt P08631, residues 22-526: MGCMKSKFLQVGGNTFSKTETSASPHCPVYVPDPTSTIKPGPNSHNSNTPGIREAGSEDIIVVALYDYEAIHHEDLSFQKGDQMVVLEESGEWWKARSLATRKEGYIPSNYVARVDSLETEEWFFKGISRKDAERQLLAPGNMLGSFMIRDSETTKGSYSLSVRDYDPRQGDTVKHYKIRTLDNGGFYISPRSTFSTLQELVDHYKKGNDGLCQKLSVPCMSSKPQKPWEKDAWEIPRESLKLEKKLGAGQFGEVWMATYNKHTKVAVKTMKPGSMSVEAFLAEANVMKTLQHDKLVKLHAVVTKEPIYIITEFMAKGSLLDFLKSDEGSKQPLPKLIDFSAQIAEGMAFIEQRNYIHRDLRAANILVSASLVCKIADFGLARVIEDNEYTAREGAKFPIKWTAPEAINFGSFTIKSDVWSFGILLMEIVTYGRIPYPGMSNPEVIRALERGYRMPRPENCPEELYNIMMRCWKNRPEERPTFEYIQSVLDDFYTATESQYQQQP
UniProt P07948: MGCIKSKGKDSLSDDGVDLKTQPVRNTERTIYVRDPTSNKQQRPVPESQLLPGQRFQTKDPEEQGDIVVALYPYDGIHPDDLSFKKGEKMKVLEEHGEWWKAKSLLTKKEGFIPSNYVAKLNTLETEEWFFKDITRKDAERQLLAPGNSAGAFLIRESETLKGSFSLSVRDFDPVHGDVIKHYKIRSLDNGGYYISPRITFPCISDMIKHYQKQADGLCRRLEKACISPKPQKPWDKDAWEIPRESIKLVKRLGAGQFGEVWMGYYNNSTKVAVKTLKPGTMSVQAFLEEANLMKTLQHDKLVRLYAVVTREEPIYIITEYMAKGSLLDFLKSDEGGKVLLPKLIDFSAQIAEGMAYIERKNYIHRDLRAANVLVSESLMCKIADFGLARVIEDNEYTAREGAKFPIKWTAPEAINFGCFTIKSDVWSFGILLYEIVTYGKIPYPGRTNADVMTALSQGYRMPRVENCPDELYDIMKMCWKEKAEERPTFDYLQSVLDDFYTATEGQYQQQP
UniProt P07947: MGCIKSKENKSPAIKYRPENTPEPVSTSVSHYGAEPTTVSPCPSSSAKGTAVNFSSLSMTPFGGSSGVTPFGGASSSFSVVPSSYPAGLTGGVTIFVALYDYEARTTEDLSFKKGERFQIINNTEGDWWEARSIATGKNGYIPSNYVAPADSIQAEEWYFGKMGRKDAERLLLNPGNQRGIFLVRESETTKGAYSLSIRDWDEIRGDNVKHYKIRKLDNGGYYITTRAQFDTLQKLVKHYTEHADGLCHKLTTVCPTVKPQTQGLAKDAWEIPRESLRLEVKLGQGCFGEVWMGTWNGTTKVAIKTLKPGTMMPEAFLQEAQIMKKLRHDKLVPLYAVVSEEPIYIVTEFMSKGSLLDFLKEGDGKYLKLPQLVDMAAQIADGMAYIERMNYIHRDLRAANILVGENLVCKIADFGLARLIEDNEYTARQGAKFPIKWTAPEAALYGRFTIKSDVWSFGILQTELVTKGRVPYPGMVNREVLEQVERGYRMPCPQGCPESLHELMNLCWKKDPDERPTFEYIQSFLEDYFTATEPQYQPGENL

How the values were obtained:
Experiment in all cases: split reporter; Gaussia princeps luciferase complementation assay (GPCA) in HEK293T cells: Gluc2 on SKAP2/SKAP1, Gluc1 at the N (N1) or C (C1) terminus of the SRC kinase; 100 ng plasmid pair, luminescence read after lysis; normalized luminescence ratio (NLR), for mutants divided by that of wildtype SKAP2; loss of interaction = mean relative NLR among the nine kinases below 0.25
[1] = target: C1-fused BLK (B lymphocyte kinase) (UniProt P51451)
[2] = target: C1-fused FYN (FGR-YES1-related novel protein) (UniProt P06241)
[3] = target: N1-fused HCK (hematopoietic cell kinase), wildtype (UniProt P08631)
[4] = target: N1-fused LYN (LCK/Yes-related novel protein tyrosine kinase) (UniProt P07948)
N1-fused YES = N1-fused YES (UniProt P07947)

Measured: binding

B1: N2-SKAP1 (SRC kinase adaptor phosphoprotein 1) (protein, UniProt Q86WV1 1-359)
chain: MQAAALPEEIRWLLEDAEEFLAEGLRNENLSAVARDHRDHILRGFQQIKARYYWDFQPQGGDIGQDSSDDNHSGTLGLSLTSDAPFLSDYQDEGMEDIVKGAQELDNVIKQGYLEKKSKDHSFFGSEWQKRWCVVSRGLFYYYANEKSKQPKGTFLIKGYGVRMAPHLRRDSKKESCFELTSQDRRSYEFTATSPAEARDWVDQISFLLKDLSSLTIPYEEDEEEEEKEETYDDIDGFDSPSCGSQCRPTILPGSVGIKEPTEEKEEEDIYEVLPDEEHDLEEDESGTRRKGVDYASYYQGLWDCHGDQPDELSFQRGDLIRILSKEYNMYGWWVGELNSLVGIVPKEYLTTAFEVEER
binds: all assays above
